About 2,200 (0.71%) of roughly 310,000 compounds showed an effect of 50% or more. Effects have a minus sign here. The list shows a part of the results.

In this assay the target is human ether-à-go-go-related gene (hERG) potassium channel (human, UniProt Q12809). Nature of the assay: primary screen, population patch clamp on CHO cells stably expressing hERG.
Chain of human ether-à-go-go-related gene (hERG) potassium channel (Q12809 whole entry, looked up): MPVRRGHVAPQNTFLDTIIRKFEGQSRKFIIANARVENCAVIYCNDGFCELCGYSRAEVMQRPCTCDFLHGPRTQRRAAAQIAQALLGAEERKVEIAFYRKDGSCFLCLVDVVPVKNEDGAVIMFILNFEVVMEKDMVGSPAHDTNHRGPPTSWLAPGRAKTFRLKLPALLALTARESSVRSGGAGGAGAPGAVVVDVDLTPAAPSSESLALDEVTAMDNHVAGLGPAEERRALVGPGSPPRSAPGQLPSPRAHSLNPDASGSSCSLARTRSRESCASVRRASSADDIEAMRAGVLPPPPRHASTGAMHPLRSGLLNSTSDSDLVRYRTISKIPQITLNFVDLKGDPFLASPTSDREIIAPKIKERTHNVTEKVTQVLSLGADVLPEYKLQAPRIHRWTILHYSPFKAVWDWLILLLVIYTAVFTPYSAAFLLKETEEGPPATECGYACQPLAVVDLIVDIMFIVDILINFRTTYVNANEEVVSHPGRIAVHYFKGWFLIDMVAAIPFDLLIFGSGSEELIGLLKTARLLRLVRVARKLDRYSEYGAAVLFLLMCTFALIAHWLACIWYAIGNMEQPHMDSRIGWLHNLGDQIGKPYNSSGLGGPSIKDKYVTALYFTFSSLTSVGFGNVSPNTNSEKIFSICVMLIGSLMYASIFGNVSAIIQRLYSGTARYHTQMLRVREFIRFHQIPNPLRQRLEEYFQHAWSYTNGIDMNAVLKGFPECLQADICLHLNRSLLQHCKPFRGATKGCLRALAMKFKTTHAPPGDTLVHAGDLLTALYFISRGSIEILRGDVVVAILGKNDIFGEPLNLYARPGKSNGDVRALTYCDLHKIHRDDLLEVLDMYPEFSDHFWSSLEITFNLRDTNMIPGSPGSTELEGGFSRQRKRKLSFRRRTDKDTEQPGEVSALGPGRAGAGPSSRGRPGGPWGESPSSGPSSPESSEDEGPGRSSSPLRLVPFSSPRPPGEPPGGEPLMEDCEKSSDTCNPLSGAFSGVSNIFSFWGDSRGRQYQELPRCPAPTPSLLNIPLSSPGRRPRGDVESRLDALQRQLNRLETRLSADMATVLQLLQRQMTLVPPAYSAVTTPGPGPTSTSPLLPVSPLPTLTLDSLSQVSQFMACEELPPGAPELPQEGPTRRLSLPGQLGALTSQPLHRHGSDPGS
Turning to `COc1cc(SC)ccc1C(=O)N1CCN(Cc2ccc3c(c2)OCO3)CC1`, the “hERG current change (%, negative = inhibition) at 1uM” value turned out to be 6.05%.

Regarding `COc1ccc(CCNC(=O)Cn2nnc(-c3ccc(N(C)C)cc3)n2)cc1OC`, the “hERG current change (%, negative = inhibition) at 1uM” value is 7.82%.

Take `CS(=O)(=O)c1ccc(Cl)c(C(=O)Nc2ccc3nc(N4CCOCC4)sc3c2)c1`: the “hERG current change (%, negative = inhibition) at 1uM” value is 9.77%.

With `CC1=CN2C(=NC(=O)CC2(C)C(=O)N(CC(=O)NC2CCCC2)c2ccccc2C)C=C1` (centres unmarked), the “hERG current change (%, negative = inhibition) at 1uM” value was 12.4%.

As to `CN(Cc1nccn1C)C(=O)C1CCC(=O)N(CCc2ccc(Cl)cc2)C1` (centres unmarked), the “hERG current change (%, negative = inhibition) at 1uM” value is given as -23.4%.

`COc1ccc(C(=O)CSc2n[nH]c(=O)n2Cc2ccco2)cc1`: the “hERG current change (%, negative = inhibition) at 1uM” value amounted to 1.38%.

As to `CCn1nnnc1SCC(=O)c1cccc(OC)c1`, the “hERG current change (%, negative = inhibition) at 1uM” value amounted to 11.2%.

As to `Cc1c(C(=O)O)sc2ncn(C)c(=O)c12`, the “hERG current change (%, negative = inhibition) at 1uM” value was found to be 10.7%.

Consider `CCCCCCCCC(=O)NCCOc1ccc(OC)cc1`, for which the “hERG current change (%, negative = inhibition) at 1uM” value is -6.71%.

For `CC(=O)Nc1nc(CC(C)C)cc(-c2ccccc2)c1C#N`, the “hERG current change (%, negative = inhibition) at 1uM” value is reported as 12.2%.

As for `CC(C)(O)C#Cc1ccc(C(=O)N2CCN(C(=O)c3ccco3)CC2)cc1`, the “hERG current change (%, negative = inhibition) at 1uM” value was 11%.

In the case of `CCN1CCCC1CNC(=O)c1cc(S(=O)(=O)N(C)C)ccc1Cl` (centres unmarked), the “hERG current change (%, negative = inhibition) at 1uM” value is on record as 13.5%.

With `COc1ccccc1NC(=O)/C(=C/c1ccncc1)NC(=O)c1ccccc1`, the “hERG current change (%, negative = inhibition) at 1uM” value was 10.8%.

Consider `CCOc1cc(CNCCSc2nnnn2C)cc(Br)c1OCc1ccccc1F.Cl`, for which the “hERG current change (%, negative = inhibition) at 1uM” value is 13.3%.

Consider `Cc1nc(SCc2ccc(O)c([N+](=O)[O-])c2)n[nH]1`, for which the “hERG current change (%, negative = inhibition) at 1uM” value is recorded as 15.1%.

Regarding `COc1cc(OC)cc(C(=O)NCCCN2CCN(CCCNC(=O)c3cc(OC)cc(OC)c3)CC2)c1`, the “hERG current change (%, negative = inhibition) at 1uM” value was -18.8%.

Consider `CSCCC(NC(=O)c1ccccc1Cl)C(=O)Nc1ccc(C)c(S(=O)(=O)N2CCOCC2)c1` (centres unmarked), for which the “hERG current change (%, negative = inhibition) at 1uM” value was found to be 3.25%.

On to `CCCCNC(=O)COC(=O)c1cc(F)c(F)cc1Cl`, for which the “hERG current change (%, negative = inhibition) at 1uM” value is recorded as 13.8%.

As to `CCn1nc(C)c(CN2CCC(C(=O)Nc3cccc(-c4cccc(Cl)c4)c3)CC2)c1C`, the “hERG current change (%, negative = inhibition) at 1uM” value was determined as 7.37%.

On to `CCCCN(CC)C(=O)Cn1cnc2ccc(S(=O)(=O)N3CCC(C)CC3)cc2c1=O`, for which the “hERG current change (%, negative = inhibition) at 1uM” value was -5.79%.

In the case of `O=C(O)c1ccccc1NS(=O)(=O)c1ccccc1C(F)(F)F`, the “hERG current change (%, negative = inhibition) at 1uM” value was 5.14%.

As for `Cc1cc(C)c2nc(N3CCC(C(=O)NCCN4CCOCC4)CC3)sc2c1`, the “hERG current change (%, negative = inhibition) at 1uM” value is 1.2%.

Turning to `N#Cc1ccc(C(=O)Nc2ccn(-c3ccccc3)n2)cc1`, the “hERG current change (%, negative = inhibition) at 1uM” value is recorded as -0.704%.

Turning to `Cc1ccc(S(=O)(=O)N(C)C)cc1NC(=S)NNC(=O)C1CC1`, the “hERG current change (%, negative = inhibition) at 1uM” value was -9.82%.

As for `Cc1ccc2nc(C)c(C(=O)N/N=C/c3cccc([N+](=O)[O-])c3)cc2c1`, the “hERG current change (%, negative = inhibition) at 1uM” value is -3.87%.

For the molecule `CCc1cc(C(=O)c2ccc(OC)cc2)c(NC(=O)CCC(=O)O)s1`, the “hERG current change (%, negative = inhibition) at 1uM” value stood at 11.4%.

As for `O=C(Nc1ccc2c(c1)CCC2)c1cc2ccccc2o1`, the “hERG current change (%, negative = inhibition) at 1uM” value is 13.8%.

Turning to `O=C(N/N=C1/CC2CCC1C2)c1cc2ccccc2cc1O` (centres unmarked), the “hERG current change (%, negative = inhibition) at 1uM” value worked out at 17.2%.

In the case of `CCN1CCN(C(c2ccccc2)c2nnnn2Cc2ccccc2)CC1.Cl` (centres unmarked), the “hERG current change (%, negative = inhibition) at 1uM” value is -2.83%.

For the molecule `COc1cccc(NC(=O)CSCc2n[nH]c(=O)[nH]2)c1`, the “hERG current change (%, negative = inhibition) at 1uM” value turned out to be 11.8%.

As to `Cc1c(C(=O)N2CCOCC2)sc(NC(=O)c2ccc3c(c2)OCO3)c1C#N`, the “hERG current change (%, negative = inhibition) at 1uM” value is on record as 13.7%.

Take `O=C(COc1ccc(S(=O)(=O)N2CCCC2)cc1[N+](=O)[O-])N1CCCC1`: the “hERG current change (%, negative = inhibition) at 1uM” value is reported as 7.43%.

`CCCC1(C(=O)OCC)NC(c2ccc(OC)cc2OC)C2C(=O)N(c3ccccc3)C(=O)C21` (centres unmarked): the “hERG current change (%, negative = inhibition) at 1uM” value came to 7.43%.

Consider `Cc1csc(NC(=O)c2ccc(C)o2)n1`, for which the “hERG current change (%, negative = inhibition) at 1uM” value was determined as 5.73%.

Turning to `O=C(N/C(=C\c1ccco1)C(=O)N1CCCC1)c1cccs1`, the “hERG current change (%, negative = inhibition) at 1uM” value is reported as 1.3%.

With `CC(=O)c1ccc(NC(=O)CN2C(=O)NC(C)(c3ccc4c(c3)OCCO4)C2=O)cc1` (centres unmarked), the “hERG current change (%, negative = inhibition) at 1uM” value is listed as 10.1%.

`Cc1c(NC(=O)CSc2nnc(-c3ccco3)n2-c2ccccc2)c(=O)n(-c2ccccc2)n1C`: the “hERG current change (%, negative = inhibition) at 1uM” value worked out at 3.63%.

Take `COc1ccc(C)cc1NC(=O)C(Sc1ccccc1)c1ccccc1` (centres unmarked): the “hERG current change (%, negative = inhibition) at 1uM” value was found to be 12%.

In the case of `Cc1ccc(C)c(CN2CCC(CNC(=O)CCc3nnc4ccc(N5CCCCC5)nn34)CC2)c1`, the “hERG current change (%, negative = inhibition) at 1uM” value came to 8.3%.

In the case of `CC(=O)NC1Sc2ccccc2N=C1c1ccccc1` (centres unmarked), the “hERG current change (%, negative = inhibition) at 1uM” value was 9.79%.

For the molecule `COC(=O)C1C(=O)OC(C)(C)C1C(C)C(=O)c1ccc(C)cc1C` (centres unmarked), the “hERG current change (%, negative = inhibition) at 1uM” value was determined as 6.78%.

For `O=c1cc(CN2CCN(c3ccccc3)CC2)c2c(ccc3ccccc32)o1`, the “hERG current change (%, negative = inhibition) at 1uM” value is -26.3%.

As to `Cc1ccc(NC(=S)c2ccncc2)cc1`, the “hERG current change (%, negative = inhibition) at 1uM” value came to 11.6%.

`COc1ccc(Cl)cc1NC(=O)C/C(C)=N/NC(=O)c1ccccc1[N+](=O)[O-]`: the “hERG current change (%, negative = inhibition) at 1uM” value stood at 8.81%.

Turning to `NC(=O)COc1ccc(-n2cnnn2)cc1`, the “hERG current change (%, negative = inhibition) at 1uM” value turned out to be 15.5%.

Turning to `Cc1cccc(C(=O)c2c(N)sc3c2CCC(C)C3)c1` (centres unmarked), the “hERG current change (%, negative = inhibition) at 1uM” value turned out to be 9.12%.

In the case of `COc1ccc(CNC(=O)C(=O)NCC(c2ccco2)N2CCOCC2)cc1` (centres unmarked), the “hERG current change (%, negative = inhibition) at 1uM” value is given as 2.42%.

Take `COc1ccc(C(=O)NCC(=O)OCc2nc(N)nc(Nc3ccccc3C)n2)cc1`: the “hERG current change (%, negative = inhibition) at 1uM” value is given as -15.5%.

Turning to `CCCN1CCN(CCCNC(=O)c2ccc(CS(=O)c3ccc(OC)cc3)o2)CC1` (centres unmarked), the “hERG current change (%, negative = inhibition) at 1uM” value worked out at 5.86%.

In the case of `COCc1ccc([C@@H]2C[C@H]3CN(Cc4cccc(Cl)c4)C(=O)[C@]34CCCN24)o1`, the “hERG current change (%, negative = inhibition) at 1uM” value is -2.14%.

With `CN(N)c1ccc2c(C(F)(F)F)cc(C(F)(F)F)nc2n1`, the “hERG current change (%, negative = inhibition) at 1uM” value was found to be 12.7%.

Consider `COc1cccc(CNC(=O)CN2C(=O)CSc3ccc(S(=O)(=O)N4CCCCC4)cc32)c1`, for which the “hERG current change (%, negative = inhibition) at 1uM” value was found to be 4.94%.

On to `COc1ccc(CC2(CO)CCN(Cc3ccc(OC(F)(F)F)cc3)CC2)cc1`, for which the “hERG current change (%, negative = inhibition) at 1uM” value was -57.5%.

For the molecule `Cc1ccccc1C(=O)NCCCc1ccccc1`, the “hERG current change (%, negative = inhibition) at 1uM” value is given as 14.6%.

`CC(O)CCC(=O)NNC1CC(=O)N(c2ccccc2)C1=O` (centres unmarked): the “hERG current change (%, negative = inhibition) at 1uM” value came to 11.3%.

As for `CC(=O)c1c(C)[nH]c(C(=O)N2CCN(c3ncccn3)CC2)c1C`, the “hERG current change (%, negative = inhibition) at 1uM” value is listed as 9.11%.

The record behind these values is publication PMC4336329 (PLoS ONE, 2015).
